Article PMC4336329 (PLoS ONE, 2015)
The campaign covered roughly 310,000 compounds. About 14,000 (4.5%) showed an effect of 50% or more. Effects have a minus sign here. This is one part of the list.

These compounds were tested against human ether-à-go-go-related gene (hERG) potassium channel (human, UniProt Q12809) (assay: primary screen, population patch clamp on CHO cells stably expressing hERG).
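Also: peak tail current of the secondary pulse compared with the same well before compound.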

human ether-à-go-go-related gene (hERG) potassium channel, sequence (Q12809 whole entry, looked up): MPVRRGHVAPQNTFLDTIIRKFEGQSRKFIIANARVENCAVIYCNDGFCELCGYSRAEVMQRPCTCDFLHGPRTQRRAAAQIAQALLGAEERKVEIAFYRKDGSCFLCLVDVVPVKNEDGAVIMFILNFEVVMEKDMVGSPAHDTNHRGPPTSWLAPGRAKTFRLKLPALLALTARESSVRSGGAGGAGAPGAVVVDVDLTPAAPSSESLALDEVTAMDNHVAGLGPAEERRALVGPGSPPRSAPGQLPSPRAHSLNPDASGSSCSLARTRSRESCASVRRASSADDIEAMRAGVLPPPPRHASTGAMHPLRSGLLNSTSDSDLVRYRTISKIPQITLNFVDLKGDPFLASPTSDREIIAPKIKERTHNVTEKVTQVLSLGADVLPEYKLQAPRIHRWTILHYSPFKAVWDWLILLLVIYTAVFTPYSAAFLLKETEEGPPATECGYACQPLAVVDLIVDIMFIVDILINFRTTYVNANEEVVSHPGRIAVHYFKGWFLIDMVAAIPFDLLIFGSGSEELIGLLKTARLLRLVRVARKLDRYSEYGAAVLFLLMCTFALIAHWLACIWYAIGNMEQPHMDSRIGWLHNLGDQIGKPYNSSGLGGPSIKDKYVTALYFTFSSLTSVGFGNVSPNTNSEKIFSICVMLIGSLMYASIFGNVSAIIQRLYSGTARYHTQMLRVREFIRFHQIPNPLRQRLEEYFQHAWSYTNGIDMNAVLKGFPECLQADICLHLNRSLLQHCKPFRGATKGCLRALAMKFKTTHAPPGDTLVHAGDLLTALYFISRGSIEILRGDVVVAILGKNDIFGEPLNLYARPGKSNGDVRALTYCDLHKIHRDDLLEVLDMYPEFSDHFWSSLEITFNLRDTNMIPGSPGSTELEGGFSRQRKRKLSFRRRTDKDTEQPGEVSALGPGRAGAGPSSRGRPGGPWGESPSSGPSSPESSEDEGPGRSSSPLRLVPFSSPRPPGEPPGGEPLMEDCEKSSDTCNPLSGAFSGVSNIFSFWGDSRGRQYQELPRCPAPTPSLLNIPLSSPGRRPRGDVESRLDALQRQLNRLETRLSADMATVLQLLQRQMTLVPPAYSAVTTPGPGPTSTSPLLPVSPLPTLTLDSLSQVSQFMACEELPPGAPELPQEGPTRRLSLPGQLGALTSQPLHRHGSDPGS

SMILES	hERG current change (%, negative = inhibition) at 10uM
Cc1cccc(OCCCN2CCOCC2)c1	13.5%
Cc1cc(C)nc(Oc2ccc(Br)cc2Br)n1	19.1%
COC(=O)c1ccc(C(=O)OCCCc2nc3ccc(N)cc3[nH]2)cc1	-8.74%
COc1ccccc1CNc1ncccc1[N+](=O)[O-]	-1.85%
O=C(NC1CCCCC1)c1cc(-c2ccc(F)cc2)on1	22.1%
CC1C(=O)N2CCCc3cc(NC(=O)COc4ccc(Cl)cc4)cc1c32 (stereo not shown)	-40.2%
CCOC(=O)N1CCN(c2ccccc2OC)CC1	15.2%
Cn1c(=O)c2c(nc(CN3CCN(c4ccc(F)cc4)CC3)n2CCN2CCOCC2)n(C)c1=O	-42.3%
CC[N+]1(CC(O)COC2CC(C)CC(C)(C)C2)CCOCC1.[I-] (stereo not shown)	21.9%
CCOc1ccc(N/C(SCc2cccc([N+](=O)[O-])c2)=C(/C#N)C(N)=O)cc1	-59.1%
Cc1ccc(NC(=S)NNC(=S)Nc2cccc(C(F)(F)F)c2)cc1	18.6%
Fc1ccc(CSc2nnc(-c3cnccn3)n2Cc2ccco2)cc1	-52.2%
O=C(Nc1nccs1)C1CCCN(S(=O)(=O)c2cccnc2)C1 (stereo not shown)	1.78%
COc1ccc(N2CC(NC(=O)NCC(C)C)CC2=O)cc1 (stereo not shown)	1.59%
O=C(C1CC(=O)N(c2ccccc2)C1)N1CCN(C2=NS(=O)(=O)c3ccccc32)CC1 (stereo not shown)	5.68%
COc1cccc(C(=O)NCCN2CCN(c3ccc(Cl)cc3)CC2)c1	-49.8%
CSCCC(NS(=O)(=O)c1cccs1)C(=O)NCc1ccccc1 (stereo not shown)	2.35%
O=C(NCCN1CCOCC1)c1cc(-c2ccco2)on1	-4.41%
CCOC(=O)[C@@H]1[C@H]2COc3ccccc3[C@H]2N2C(=O)N(c3ccc(Cl)cc3)C(=O)[C@@]12C	3.7%
CC(C)(C)c1nnc(NC(=O)NS(=O)(=O)c2ccccc2)s1	19.7%
COc1ccc([N+](=O)[O-])c(OC)c1C(=O)Nc1ccc(F)cc1F	-0.148%
CC(=O)COc1coc(CN2CCN(c3ccc(F)cc3)CC2)cc1=O	15.5%

SMILES	hERG current change (%, negative = inhibition) at 10uM
Cc1ccc(C)c(NC(=O)Nc2ccc3c(c2)OCO3)c1	8.8%
CCOCCCNCc1cccc(OCc2ccc(F)cc2)c1	-50.1%
Cc1nn(Cc2cccc(C(=O)N3CCCC(C)C3)c2)c(C)c1[N+](=O)[O-] (stereo not shown)	-17%
Cc1[nH]c2ccccc2c1/C=N/NC(=O)c1cc(C(C)(C)C)[nH]n1	-20.6%
NC(N)=N/N=C/c1ccc(N(c2ccccc2)c2ccccc2)cc1.O=[N+]([O-])O	-50.8%
Cc1ccc(-c2csc(N)n2)s1	8.83%
CCOC(=O)[C@H]1[C@H]2COc3ccc(Br)cc3[C@H]2N2C(=O)CNC(=O)[C@@]12C	6.03%
O=C(CCc1nc2ccccc2c(=O)[nH]1)N1CCN(S(=O)(=O)c2ccc(F)cc2)CC1	-27.6%
COc1ccc2oc(=O)c(-c3csc(Nc4cccc(O)c4)n3)cc2c1	25.8%
O=C(CSc1nc2ccccc2[nH]1)N/N=C/C=C/c1ccccc1[N+](=O)[O-]	-26.6%
Cn1c(Cl)cnc1C(O)c1ccccc1 (stereo not shown)	-0.22%
CCOCCCNC(=O)CCC(=O)NNc1nc2ccccc2c2nc(C)nn12	-0.277%
CCOC(=O)Cc1csc(NC(=S)NC(=O)c2ccc(C)cc2)n1	17.3%
Nc1ccc2nc(-c3cccc(-c4nc5ccc(N)cc5[nH]4)c3)[nH]c2c1	5.5%
Cc1c(S(=O)(=O)NCCc2ccccc2)c(=O)n(C)c(=O)n1C	-1.25%
Cn1nnnc1SCc1c(F)cccc1F	5.34%
N#C/C(=C(/O)COC(=O)COc1ccc(Cl)cc1)c1nc2ccccc2[nH]1	16%
COc1ccc(-c2noc(CN3CCN(c4ccccc4)CC3)n2)cc1	3.94%
COc1cc(C(=O)N(CCc2ccccc2)C2CC3CCC(C2)N3C)cc(OC)c1OC.Cl.O (stereo not shown)	-38.3%
Cn1c(CC(=O)Nc2cccc(Cl)c2Cl)nnc1SCC(=O)NC1=NCCS1	17.8%
O=C(CSc1ccc(-c2ccc(F)cc2)nn1)N1CCN(c2ccccc2)CC1	-12.7%
CC(=O)O.c1ccc2c(c1)NC1(CCCCCC1)n1c-2nc2ccccc21	-19.9%

SMILES	hERG current change (%, negative = inhibition) at 10uM
CC(/C=N/Nc1nc(C)cc(C)n1)=C\c1ccc(C(C)C)cc1	-6.34%
CCOC(=O)[C@H]1[C@H]2COc3ccc(Cl)cc3[C@@H]2N2C(=O)c3ccc(Cl)cc3NC(=O)[C@@]12C	2.36%
CCCCNC(=O)c1ccc(CS(=O)(=O)c2ccc(OC)cc2)o1	-7%
Cc1cccc2sc(N(CCCN(C)C)C(=O)c3cc4ccccc4oc3=O)nc12.Cl	-54.6%
Cc1cc(N)n(-c2ccc(C)c(C)c2)n1.Cl	19.4%
COc1cc(NC(=O)COC(=O)CSc2ccccc2F)c(C)cc1[N+](=O)[O-]	15.9%
COC(=O)c1ccc(C23CC4(C2)[C@H](CN(CC2CCCCC2)[C@@H]4c2ccccc2)C3c2ccc(C(F)(F)F)cc2)cc1 (stereo partly shown)	6.02%
CCOc1ccc(NC(=O)CSc2nncc(=O)n2N)cc1	23.2%
CCc1ncc(C(=O)c2ccc(OC)cc2)n1C	0.711%
Cn1ccnc1C(=O)c1cccc(Br)c1	-26%
Cc1nc2ccccn2c1C(=O)/C=C/c1ccc(F)cc1	-11.6%
Cc1nnc(NC(=O)CSc2nnc(CCNC(=O)c3ccccc3F)n2C)s1	2.77%
CSc1oc(-c2ccc(F)cc2)nc1S(=O)(=O)c1ccccc1	-1.15%
O=C(c1ccc(OC2CCN(C/C=C/c3ccccc3)CC2)cc1)N1CCCC1	-75.7%
Cc1cccc(N2CC(C(=O)Nc3ccc(S(=O)(=O)N4CCOCC4)cc3)CC2=O)c1 (stereo not shown)	2.67%
COc1ccc(CC(=O)N2CCN=C2SCc2ccc([N+](=O)[O-])cc2)cc1	-52.2%
CCOc1ccc(N=C(NN)c2ccc3ccccc3n2)cc1	3.33%
Cc1cccc(-n2ccnc2SCC(=O)Nc2nnc(C)s2)c1	-25.8%
CCOC(=O)c1sc(=NC(=O)c2c(F)cccc2F)n(C)c1C	22.2%
CC(=O)Nc1ccc(NC(=O)[C@@H](NC(=O)c2ccccc2F)C(C)C)cc1	14.1%
Cc1ccccc1CS(=O)(=O)Cc1ccc(C(=O)NCc2ccccn2)o1	17.4%
CN(Cc1ccccc1)C(=O)c1ccc(NC(=O)Cc2cccc(NC(=O)C3CCCN(C(=O)C4CCC4)C3)c2)cc1 (stereo not shown)	1.51%

SMILES	hERG current change (%, negative = inhibition) at 10uM
COc1ccccc1-c1coc2cc(O)cc(O)c2c1=O	9.89%
O=C(Nc1ncccc1O)c1cc2ccccc2o1	22.3%
O=C(NCc1ccccc1)C(c1ccncc1)N(C(=O)c1csnn1)c1ccccc1F (stereo not shown)	5.56%
C=CCNc1ncnc2sc(SC)nc12	12.3%
CC1CCCCN1C(=O)Cn1c(=O)n(CCC(=O)NCc2ccco2)c(=O)c2sccc21 (stereo not shown)	1.58%
Cc1ccc(Cn2c(=N)c(C(=O)NCCN3CCOCC3)cc3c(=O)n4ccccc4nc32)cc1	-63.2%
CC(=O)Cc1c(C(=O)O)c(C)nn1-c1ccccc1	21.5%
O=C1CC(c2ccc3c(c2)OCO3)Sc2nc3ccccc3n21 (stereo not shown)	-2.47%
CCCCCNC(=O)C1c2ccccc2Oc2ccccc21	2.44%
COc1ccccc1N1CCN(C(=O)C(CC(C)C)NC(=O)C2CCCCC2)CC1 (stereo not shown)	-16.6%
CS(=O)(=O)N(CC(=O)NC1CCCCC1)Cc1ccc(F)cc1	15.8%
CCCCn1c(SCC(=O)NCc2cccs2)nc2c1c(=O)n(C)c(=O)n2C	-35.4%
O=C(Cc1ccc2c(c1)CCCC2)Nc1ccc2ccccc2c1	27.2%
COc1ccccc1C(=O)NC(=S)Nc1ccc(NC(=O)c2ccco2)cc1	-26%
Cc1cc(OCC(=O)Nc2cnn(CCCC(=O)O)c2)ccc1Cl	18%
Cc1ccc(Oc2c(C)nc(-c3ccccc3)[nH]c2=O)cc1	-14.1%
CS(=O)(=O)c1ccc(Cl)c(C(=O)O)c1	11%
Cc1cccc(NC2=NCCCS2)c1	6.3%
O=C(C(Sc1ccccc1)c1ccccc1)N1CCN(c2ccccc2F)CC1 (stereo not shown)	-3.71%
O=C(CSc1nnnn1C1CCCC1)NCc1ccc2c(c1)OCO2	-0.506%
COCCN(C(=O)CSc1ncn[nH]1)c1c(N)n(Cc2ccccc2)c(=O)[nH]c1=O	24.4%
CC(C)[C@H](CN(N=O)[C@@H](Cc1ccccc1)CN(C)N=O)N(CCc1ccccc1)N=O.[Na+]	-0.676%
